Assay results taken from PubChem BioAssay AID1240 (Sanford-Burnham Center for Chemical Genomics, 2008).
About 800 (1.6%) of roughly 50,000 compounds showed an effect of 50% or more. The list shows a part of the results.

Biological target: Bcl-2-like protein 10 (Homo sapiens) (UniProt Q9HD36)
Experiment: TR3 peptide-Bcl-B binding displacers, biochemical primary FP assay, phenotype converters (AID 1240);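 note: 0% = Bcl-B with tracer peptide and DMSO and 100% = tracer peptide lacking Bcl-B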
Conditions: GST-Bcl-B / FITC-TR3 peptide fluorescence polarization; stronger effect = higher value; compound at 3.75 mg/L

Chain of UniProt Q9HD36 (Q9HD36 whole entry, looked up): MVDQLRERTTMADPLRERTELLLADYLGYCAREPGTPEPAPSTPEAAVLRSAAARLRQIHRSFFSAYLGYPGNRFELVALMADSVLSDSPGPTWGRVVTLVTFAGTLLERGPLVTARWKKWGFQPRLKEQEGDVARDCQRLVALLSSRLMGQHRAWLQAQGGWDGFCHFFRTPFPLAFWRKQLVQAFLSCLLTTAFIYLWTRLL

Compared with `O=C(CCc1ccccc1)Nc1ccccc1-c1ccccc1`, `O=C(CC1SC(=Nc2ccccc2)N(c2ccccc2)C1=O)NCc1ccccc1` (stereo not drawn) is lower in displacement: -6% for the first, -10.3% for the second.

First: CCN(CC)CCCNC(=O)c1cc2nc(-c3ccc([N+](=O)[O-])cc3)cc(C(F)(F)F)n2n1
Second: O=[N+]([O-])c1ccc(-c2nc(Cc3c(F)cccc3Cl)no2)cc1
The displacement of the first is lower: -4.7% for the first, 7.8% for the second.

Compared with `COc1cccc2c(Cl)c(CC=C(Cl)Cl)c(C)nc12`, `CCCC(=O)N/C(N)=N\c1nc(C)c2ccccc2n1` is higher in displacement: -4.2% for the first, 0.1% for the second.

First: O=C(CC(c1ccccc1)c1ccccc1)Nc1nncs1
Second: O=C(CSc1nc2ccccc2s1)OCC(=O)c1ccccc1
The displacement of the first is higher: 5.7% for the first, -5.2% for the second.

First: COc1cccc(N2C(=O)C(=O)/C(=C(\O)c3ccccc3)C2c2ccccc2F)c1 (stereo not drawn)
Second: COc1cccc(C2Nc3ccc(C(=O)c4ccccc4)cc3NC3=C2C(=O)CCC3)c1 (stereo not drawn)
The displacement of the first is higher: 11.1% for the first, -5.2% for the second.

Compared with `Cc1cccc(NC(=O)C(=O)NCc2ccco2)c1C`, `CC(=O)c1ccc(NC(=O)c2ccccc2C)cc1` is higher in displacement: 11% for the first, 18.9% for the second.

Compared with `COc1cc(C=O)ccc1Oc1ncnc2sc3c(c12)CCCC3`, `CC(C)(C)c1nc2sc3c(c2c(=O)[nH]1)CCCC3` is lower in displacement: 4.7% for the first, -3.5% for the second.

Compared with `Cc1cn(C2CC(O)C(CO)O2)c(=O)n(C)c1=O` (stereo not drawn), `COc1ccc2c(c1)C(=O)N(c1ccc(C)cc1C)C(=O)/C2=C/N1CCOCC1` is higher in displacement: -3% for the first, 14.7% for the second.

Going from `COc1ccc(/C=C2\SC(=O)N(c3cccc(O)c3)C2=O)cc1` to `COc1cc(/C=C2\C(=O)NN(c3ccccc3)C2=O)cc([N+](=O)[O-])c1O`, the displacement falls from 11.1% to -0.6%.

First: O=C(c1ccc(Cl)cc1)N1CCN(c2cccc(Cl)c2)CC1
Second: S=C(c1ccc(-c2ccc(Cl)cc2Cl)o1)N1CCN(c2ccccc2)CC1
The displacement of the first is lower: -5.5% for the first, 5.6% for the second.

Compared with `O=C1NC(=O)N(c2ccc(Cl)cc2)C(=O)/C1=C/c1ccc(N2CCOCC2)o1`, `O=C1NC(=O)N(c2ccc(Cl)cc2)C(=O)/C1=C\c1ccc(-c2ccc([N+](=O)[O-])cc2)o1` is higher in displacement: -126% for the first, 105% for the second.

Compared with `COc1cccc(/C=N/NC(=O)c2cccc(N3CCCC3=O)c2)c1`, `COc1ccccc1NC(=O)c1c(NC(=O)c2cccc(C)c2)sc2c1CCC2` is higher in displacement: -3.5% for the first, 13.4% for the second.

Compared with `Cc1ccc(-c2ccccc2)n1-c1ccccc1C(=O)O`, `COc1ccccc1C(=O)Nc1nc2ccccc2n1CCOc1ccccc1` is lower in displacement: 86.8% for the first, -23.3% for the second.

First: CCCOc1ccc(C(=O)Nc2sc(CC)cc2C(=O)OCC)cc1
Second: CCOc1ccc(C(=O)Nc2ccsc2C(=O)OC)cc1
The displacement of the first is lower: -7.9% for the first, 4% for the second.

Compared with `COc1ccccc1C(=O)Nc1cc(C(F)(F)F)ccc1Br`, `CCOc1ccc(C(=O)Nc2ccccc2OC)cc1Br` is higher in displacement: -7.9% for the first, 2.4% for the second.

First: O=C(Cn1cc(Br)c(=O)n(CC(=O)Nc2ccccn2)c1=O)Nc1ccccn1
Second: NC(=O)c1ccccc1NC(=O)c1ccncc1
The displacement of the first is higher: 1.8% for the first, -5.7% for the second.

Going from `Cc1ccc(OCC(=O)Nc2ccc(OC(F)(F)F)cc2)c(C)c1` to `Cc1cccc(OCC(=O)Nc2ccc3c(c2)-c2ccccc2C3)c1`, the displacement rises from -4.5% to 2.7%.

Compared with `Cc1ccc(NS(=O)(=O)c2ccc(N3C(=O)CCC3=O)cc2)cc1`, `O=[N+]([O-])c1ccccc1S(=O)(=O)Nc1ccc(S(=O)(=O)N2CCCCC2)cc1` is lower in displacement: 11.8% for the first, 0.7% for the second.

First: O=C1CC(N2CCN(c3ccccc3)CC2)C(=O)N1c1ccc(I)cc1 (stereo not drawn)
Second: O=C1c2ccccc2C(=O)N1CN1CCN(Cc2ccccc2)CC1
The displacement of the first is lower: -0.8% for the first, 14.4% for the second.

Compared with `O=C(Nc1c(C(=O)N2CCN(Cc3ccccc3)CC2)cnn1-c1ccccc1)c1ccc(Br)cc1`, `COc1ccc(NC(=O)c2ccc(CN3CCc4ccccc4C3)cc2)cc1OC` is higher in displacement: -9.8% for the first, 12.1% for the second.

First: COc1ccc(N(CC(=O)N/N=C(\C)c2ccc(OC)c(OC)c2)S(=O)(=O)c2ccccc2)cc1
Second: CCN(CC)c1ccc(/C=N/NC(=O)CN(c2ccc(OC)cc2)S(=O)(=O)c2ccccc2)cc1
The displacement of the first is lower: 0.8% for the first, 7.1% for the second.

Going from `O=[N+]([O-])c1ccc(CNCC2OCCc3ccccc32)cc1` (stereo not drawn) to `O=C(CSCC(=O)c1ccc([N+](=O)[O-])cc1)Nc1ccc2ccccc2c1`, the displacement rises from 5.1% to 15.1%.

Compared with `Clc1ccc(CSc2nsc(SCc3ccc(Cl)cc3)n2)cc1`, `O=c1cc(C(F)(F)F)c2ccc(OCc3ccc(Cl)cc3)cc2o1` is lower in displacement: 0.4% for the first, -5.2% for the second.

Going from `CCOc1cc(/C=N/N=C2/NC(=O)CS2)ccc1OCc1ccc(F)cc1` to `CCOc1cc(/C=C2/SC(=S)N(CC)C2=O)ccc1OCc1ccccc1Cl`, the displacement rises from -11.8% to 5.1%.

Going from `N/C(=N\OC(=O)c1ccc(Br)cc1)c1cccc([N+](=O)[O-])c1` to `CCOc1ccc(NC(=S)NC(=O)c2ccccc2)c([N+](=O)[O-])c1`, the displacement rises from -8% to 10.6%.

Compared with `Cc1ccccc1OCCOc1ccc(/C=c2\sc3nc4ccccc4n3c2=O)cc1`, `C=CCc1ccccc1OCCOc1ccc(Br)cc1/C=C1/SC(=S)N(C)C1=O` is lower in displacement: 3.3% for the first, -1.8% for the second.

Going from `COc1ccc(C(=O)Nc2c(C)cc(C)cc2C)cc1[N+](=O)[O-]` to `CCC1CCc2c(sc(NC(=O)c3ccccc3[N+](=O)[O-])c2C(=O)OC)C1` (stereo not drawn), the displacement falls from 6.3% to -7.8%.

Compared with `CC1(C)CC(=O)C(C2(O)C(=O)Nc3ccccc32)CO1` (stereo not drawn), `Cc1ccc(S(=O)(=O)n2nnc3ccccc32)c(C)c1` is lower in displacement: 3.9% for the first, -4.4% for the second.

Compared with `CCN(CC)C(NC(=O)C(C)(C)C)C(Cl)(Cl)Cl` (stereo not drawn), `Cc1ccc(C23CC4CC(CC(C(=O)NC(C)C(=O)NC(C)(C)C)(C4)C2)C3)cc1` (stereo not drawn) is lower in displacement: 7.6% for the first, -13.8% for the second.

First: O=C1N/C(=N/S(=O)(=O)c2ccccc2)S/C1=C\c1cccnc1
Second: Cc1cccc2sc(NC(=O)c3ccc(S(=O)(=O)N4CCCc5ccccc54)cc3)nc12
The displacement of the first is higher: 8.3% for the first, 7.4% for the second.

Compared with `COc1ccc(OC)c(N(CC(=O)N(Cc2ccccc2)Cc2ccccc2)S(C)(=O)=O)c1`, `Cc1ccc(S(=O)(=O)N(Cc2ccccc2)c2ccccc2C(=O)NCc2ccccc2)cc1` is higher in displacement: 10% for the first, 10.7% for the second.

Compared with `O=C(O)CCC(=O)Nc1cc(NC(=O)CCC(=O)O)cc(C(=O)O)c1`, `CC(=O)Nc1cc(C(=O)O)cc(N)c1Cl` is higher in displacement: 2% for the first, 14.3% for the second.

Going from `Cc1ccc(S(=O)(=O)N2CCN(C3CCCCCC3)CC2)cc1` to `CC1CCC(N2CCN(S(=O)(=O)c3ccc(Cl)cc3)CC2)CC1` (stereo not drawn), the displacement falls from 10.9% to -10.5%.

Compared with `COC(=O)CSc1nc(NC(C)=O)nc(C)c1Br`, `CC(=O)Nc1ccc(NC(=O)c2ccc(C)cc2)cc1` is lower in displacement: 4.5% for the first, -1.1% for the second.

Compared with `Cc1cc(C)c(S(=O)(=O)NC(=O)C23CC4CC(CC(C4)C2)C3)c(C)c1`, `O=C(NC(C(=O)NCc1ccccc1)C12CC3CC(CC(C3)C1)C2)c1ccc(F)cc1` (stereo not drawn) is lower in displacement: 1.7% for the first, -7.2% for the second.

Compared with `Cc1c(-c2nc(-c3ccccn3)no2)cccc1[N+](=O)[O-]`, `O=C1c2ccccc2C(=O)N1c1ccc2nc(Sc3nc4ccc([N+](=O)[O-])cc4s3)sc2c1` is lower in displacement: 1.2% for the first, -9.9% for the second.

Going from `CCN(CC)c1ccc(/C=N/Nc2nncc(-c3ccccc3)n2)cc1` to `O=C(/C=C/c1ccccc1)NC(=S)Nc1ccc(I)cc1`, the displacement rises from 2.5% to 11.6%.

Going from `CN1C2C=C(N(CCc3c[nH]c4ccccc34)C(=O)c3ccc(Cl)cc3)CC1CC2` (stereo not drawn) to `O=C(/C=C/c1nc2ccccc2[nH]1)c1c(-c2ccccc2)c2cc(Cl)ccc2[nH]c1=O`, the displacement falls from -8.7% to -10.7%.

First: CCSc1nnc(NC(=O)c2c(C)c(-c3ccc(C)cc3)nc3ccccc23)s1
Second: CCC(=NNC(=O)Nc1c(C)cccc1C)c1ccc(O)cc1
The displacement of the first is higher: -3.3% for the first, -9.7% for the second.

Going from `CCOC(=O)C(=CNCCC(=O)O)C(=O)OCC` to `CCOc1cc(OCC)cc(C(=O)Nc2ccc(I)cc2Cl)c1`, the displacement falls from 14.6% to 1.1%.

First: O=c1c(O)c(-c2ccc3c(c2)OCO3)oc2ccccc12
Second: CCOc1ccc2ccc(OCC)c(/C=C3\C(=O)NC(=O)N(c4ccc5c(c4)OCO5)C3=O)c2c1
The displacement of the first is lower: -8.7% for the first, 17.5% for the second.

Compared with `NC(=O)c1c(NC(=O)c2cccc(Cl)c2)sc2c1CCCC2`, `Cc1cccc(C)c1OCC(=O)Nc1sc2c(c1C#N)CCCC2` is higher in displacement: -4.7% for the first, -0.3% for the second.

First: CCOC(=O)C1=C(C)N=c2s/c(=C\c3cc([N+](=O)[O-])cc(Br)c3O)c(=O)n2C1c1cccs1 (stereo not drawn)
Second: CSc1ccc(C2C(C(=O)OCCOc3ccccc3)=C(C)NC3=C2C(=O)CCC3)cc1 (stereo not drawn)
The displacement of the first is higher: -6.4% for the first, -7.1% for the second.

Going from `Cc1cc(C)cc(OCC(=O)NCc2cccnc2)c1` to `Cc1cc(C)nc(NS(=O)(=O)c2ccc(NC(=O)c3ccco3)cc2)n1`, the displacement falls from 1.6% to -4.7%.

Going from `CCN(CC)CCCCOc1c(OC)cccc1OC` to `COc1ccc(C2(C#N)CCOCC2)cc1OC`, the displacement rises from -10.1% to -6%.

First: CSc1ccc(/C=C(\NC(=O)c2ccc(C)cc2)C(=O)Nc2cccc(F)c2)cc1
Second: O=C(/C=C\c1ccccc1)Nc1ccc(Cl)c(-c2nc3ccccc3o2)c1
The displacement of the first is higher: 127% for the first, 3% for the second.

Compared with `COc1ccc(CNC(=O)C(N)=O)cc1`, `COc1ccc(OC)c(NC(=O)CN(c2ccc(Cl)cc2)S(C)(=O)=O)c1` is lower in displacement: 8.7% for the first, -2.5% for the second.

Going from `COc1cc(C2C3=C(CCCC3=O)OC3=C2C(=O)CCC3)cc(OC)c1OC` to `O=c1oc2cc(OCc3ccc(Cl)cc3Cl)ccc2c2c1CCC2`, the displacement rises from -1.5% to 9.8%.

Compared with `CC12CNCC(C)(CN(Cc3ccc(Br)cc3)C1)C2`, `c1ccc2c(c1)nc1n2CCN1CCNC1CCCCC1` is lower in displacement: -3.4% for the first, -6.8% for the second.

Going from `Cc1c(C#N)sc2nc(-c3ccccc3)nc(/N=C/N(C)C)c12` to `Oc1c(C=Nc2cccc3ccccc23)sc2ccccc12`, the displacement falls from -6.7% to -25.8%.

First: CCOC(=O)c1c(N)sc2c1CC(C(C)C)OC2 (stereo not drawn)
Second: COC(=O)C1=C(O)CSC1=Nc1ccccc1
The displacement of the first is lower: -16.3% for the first, -8.7% for the second.

Compared with `CC(C1CC1)N1C(=O)C2C(C1=O)C1C=CC2C12CC2` (stereo not drawn), `O=c1c(Cc2ccccc2)c(O)nc2n1CCCS2` is higher in displacement: -4.1% for the first, 2.3% for the second.

Compared with `O=c1cnnc(N/N=C\c2c(Cl)cccc2Cl)[nH]1`, `O=C(Nc1ccc(Cl)cc1Cl)c1ccc(Cl)cc1Cl` is higher in displacement: -11.7% for the first, -1.6% for the second.

Compared with `CCOc1ccc(-c2c(C#N)c(N)n3c(nc4ccccc43)c2C#N)cc1OC`, `Cc1ccc(S(=O)(=O)N(CC(O)CN(CC(C)C)CC(C)C)c2cccc(C)c2)cc1` (stereo not drawn) is higher in displacement: -8.9% for the first, 10% for the second.
